Variants at the floor of the assay are shown more often than the library holds them.
B1: TPR 5TU (parent)
chain: GGAUCUUCUCGAUCUAACAAAAAAGACAAAUCUGCCACAAAGCUUGAGAGCAUCUUCGGAUGCAGAGGCGGCAGCCUUCGGUGGCGCGAUAGCGCCAACGUUCUCAACUAUGACACGCAAAACGCGUGCUCCGUUGAAUGGAGUUUAUCAUG

Variants of: B1
Assay: polymerase ribozyme fitness, log enrichment relative to wild type (log ratio); higher = more active; in vitro selection for triplet polymerase activity
Method in brief: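 Mutant libraries were PCR-built and transcribed for each subunit of a heterodimeric triplet polymerase ribozyme and selected for one round in triplicate at −7 °C, frozen, before gel excision of extended constructs and streptavidin-bead capture. Input and output libraries were Illumina-sequenced, keeping genotypes with ≥10 input reads and ≥1 read per output. Fitness is a logarithmic ratio of genotype to wild-type enrichment, in base 2, using inverse-variance-weighted replicate averages.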

A23U U44A G70C C99G A142U and A23U U55A G88A C114A G136C cannot be ordered by “polymerase ribozyme fitness (log ratio)” value: at most -4.2 for the first, at most -4.2 for the second.

Compared with A22C G92C, A22C C114A is lower in “polymerase ribozyme fitness (log ratio)” value: -1.73 for the first, -3.5 for the second.

First: A23G C38G C95U C114G
Second: A23U C27U C38G C93U U134A
The “polymerase ribozyme fitness (log ratio)” value of the first is higher: -3.85 for the first, at most -4.2 for the second.

A23C C38A C51U U55C A73G G92U C131U A138C and A22U C69G C75U C93U U101C U127A cannot be ordered by “polymerase ribozyme fitness (log ratio)” value: at most -4.2 for the first, at most -4.2 for the second.

A24C A29G C93U G136U A137G and A23C A30G U55G C96A G117U cannot be ordered by “polymerase ribozyme fitness (log ratio)” value: at most -4.2 for the first, at most -4.2 for the second.

A23G A91U G140C and A22U A24U C54G G65U G84A cannot be ordered by “polymerase ribozyme fitness (log ratio)” value: at most -4.2 for the first, at most -4.2 for the second.

A23C A30U G50A C54A G86A and A23U G42A G68C G92A U102G cannot be ordered by “polymerase ribozyme fitness (log ratio)” value: at most -4.2 for the first, at most -4.2 for the second.

A23G C38U U55C C69U A98U C116U A120U G141U A147C and A24C A64C cannot be ordered by “polymerase ribozyme fitness (log ratio)” value: at most -4.2 for the first, at most -4.2 for the second.

A23C A98G U127C and A22U A28U U31A A39U A40C A41U A142U G152U cannot be ordered by “polymerase ribozyme fitness (log ratio)” value: at most -4.2 for the first, at most -4.2 for the second.

Compared with A24C A29G C51U C95G C96U C114A U146C, A22C U33G G50C U78A C87A G126A U135A U144G is higher in “polymerase ribozyme fitness (log ratio)” value: at most -4.2 for the first, -3.83 for the second.

A22C C54U G84U U104G C114G G133U and A23C A29U G68C U82G G133U U134A A138U cannot be ordered by “polymerase ribozyme fitness (log ratio)” value: at most -4.2 for the first, at most -4.2 for the second.

A23C C36G G42A C96U C131A and A23U G50C U139G cannot be ordered by “polymerase ribozyme fitness (log ratio)” value: at most -4.2 for the first, at most -4.2 for the second.

First: A23G C35U C57G G65A
Second: A23G U55A C87U
The “polymerase ribozyme fitness (log ratio)” value of the first is lower: at most -4.2 for the first, -2.98 for the second.

Going from A22C U56A C87G U101G to A22G A52U G84A C123A, the “polymerase ribozyme fitness (log ratio)” value rises from at most -4.2 to -2.11.

Compared with A23U A49U C63G G81A G83C, A22C G141U is higher in “polymerase ribozyme fitness (log ratio)” value: at most -4.2 for the first, 1.81 for the second.

A23G G25U C27A A41C A47G A49C G71C C116G A120C G141C and A24C A73U A110U G152A cannot be ordered by “polymerase ribozyme fitness (log ratio)” value: at most -4.2 for the first, at most -4.2 for the second.

A22U A24C A39C and A24C A37G G48C C63U U78G G88C U144G cannot be ordered by “polymerase ribozyme fitness (log ratio)” value: at most -4.2 for the first, at most -4.2 for the second.

A23U A29C U45A G46U C51A C93G C95G A121C U139A C149A and A22U C75A G81C C87U A150U cannot be ordered by “polymerase ribozyme fitness (log ratio)” value: at most -4.2 for the first, at most -4.2 for the second.

A23U A41C C43G C85U G88A C118U G133A A150C and A23C G25C G34A U45A A60G C72G U90A G92A cannot be ordered by “polymerase ribozyme fitness (log ratio)” value: at most -4.2 for the first, at most -4.2 for the second.

A22U A121U A137C A142C and A23G C35U G42A U56A G67A C85A G94U A113C U148A cannot be ordered by “polymerase ribozyme fitness (log ratio)” value: at most -4.2 for the first, at most -4.2 for the second.

A23U G67C G68U U82C U90A C95U G112A G124A U146G and A23G U31A G58C G70C C93G A107G cannot be ordered by “polymerase ribozyme fitness (log ratio)” value: at most -4.2 for the first, at most -4.2 for the second.

First: A23U U55C C76U A137C A147C
Second: A22G G59A A60C C85A G94A C105U G126A
The “polymerase ribozyme fitness (log ratio)” value of the first is lower: at most -4.2 for the first, -4.1 for the second.

A22U A30U C32G A60C A142U U145G and A23G C96A C125U C129U cannot be ordered by “polymerase ribozyme fitness (log ratio)” value: at most -4.2 for the first, at most -4.2 for the second.

A23U G48A A52G U53C C54U G86A and A23G C85U C93U A138G cannot be ordered by “polymerase ribozyme fitness (log ratio)” value: at most -4.2 for the first, at most -4.2 for the second.

A22G C54A A60C U78G U90G A91G C116U G143A and A22U A23C A24C G48C G67U G86U C95G C96U C114G C118G cannot be ordered by “polymerase ribozyme fitness (log ratio)” value: at most -4.2 for the first, at most -4.2 for the second.

A22G A39U G46U A49U A64G U77A C93A A150G and A23C U61A U82C A142C cannot be ordered by “polymerase ribozyme fitness (log ratio)” value: at most -4.2 for the first, at most -4.2 for the second.

First: A23U A39U G84U G94A
Second: A22U U144A
The “polymerase ribozyme fitness (log ratio)” value of the first is lower: at most -4.2 for the first, 0.777 for the second.

A24C A37C C38U G59A C95A A107C C116U and A22U G50C C93U C118G cannot be ordered by “polymerase ribozyme fitness (log ratio)” value: at most -4.2 for the first, at most -4.2 for the second.

A23U C79A C87A C99U and A22G C72G C87U C93A C99A cannot be ordered by “polymerase ribozyme fitness (log ratio)” value: at most -4.2 for the first, at most -4.2 for the second.

A23G A47C C93G C105G and A23U A37U G71U A89C C125A G136U cannot be ordered by “polymerase ribozyme fitness (log ratio)” value: at most -4.2 for the first, at most -4.2 for the second.

First: A22C G58C G70U U134C
Second: A22C G42A G70C G94A A106C A115U
The “polymerase ribozyme fitness (log ratio)” value of the first is higher: -3.68 for the first, at most -4.2 for the second.

First: A22U C93A
Second: A23G C38U A49C U61A G83A A107C C116A
The “polymerase ribozyme fitness (log ratio)” value of the first is higher: -2.34 for the first, at most -4.2 for the second.

A22G U77A and A22C C32U C96A U104C C108G cannot be ordered by “polymerase ribozyme fitness (log ratio)” value: at most -4.2 for the first, at most -4.2 for the second.

A23C A47C C76A G84U G124A and A22G C36G G92A A137G cannot be ordered by “polymerase ribozyme fitness (log ratio)” value: at most -4.2 for the first, at most -4.2 for the second.

A23G A24C C32G U55A A89C A106G and A23C A41U G84C C85G C95U cannot be ordered by “polymerase ribozyme fitness (log ratio)” value: at most -4.2 for the first, at most -4.2 for the second.

A23C A40G G50C G59C U102G U109G G117A and A23G A29U G46C U55G G81C cannot be ordered by “polymerase ribozyme fitness (log ratio)” value: at most -4.2 for the first, at most -4.2 for the second.

A22C C36A G133C and A23U G48C C54A C75G G80C C96U G140A cannot be ordered by “polymerase ribozyme fitness (log ratio)” value: at most -4.2 for the first, at most -4.2 for the second.

A23U C93U A97G A113C G136U U148G and A23C C87A cannot be ordered by “polymerase ribozyme fitness (log ratio)” value: at most -4.2 for the first, at most -4.2 for the second.

A23U C87G and A23U C75G C93U C96U U135C cannot be ordered by “polymerase ribozyme fitness (log ratio)” value: at most -4.2 for the first, at most -4.2 for the second.

Going from A23C A39C C76A A97G G143C to A22C U45A, the “polymerase ribozyme fitness (log ratio)” value rises from -3.82 to -2.58.

A23U U109A and A23G G46C G50A G92A C118U A142U cannot be ordered by “polymerase ribozyme fitness (log ratio)” value: at most -4.2 for the first, at most -4.2 for the second.

For A24C A37C A66C C93G C105U A121G G152U, the “polymerase ribozyme fitness (log ratio)” value was at most -4.2.

From the RNAGym collection of RNA variant scans (doi:10.1073/pnas.2313332121)
